Assay results: PubChem BioAssay AID686978 (National Center for Advancing Translational Sciences (NCATS), 2013)
Out of some 420,000 compounds screened, about 64,000 (15%) were called active. The shares of active, inactive and inconclusive entries below differ from those in the screen. Calls follow the shape of the dose curve; as a rule, active = well fitted inhibition curve with a large enough effect; inconclusive = small, poorly fitted or top-dose-only effect; inactive = flat fitted curve, though single readings scatter. Potencies of inconclusive entries are left out as doubtful fits.
% is scaled to controls: 0 for no effect and ±100 for the full control effect; potency is read from the fitted curve at half-maximal effect; tags tell the direction and shape of the fitted curve.

Experiment: qHTS for Inhibitors of human tyrosyl-DNA phosphodiesterase 1 (TDP1): qHTS in cells in absence of CPT; also: nearly all actives have a fitted effect of over 55% in size
Conditions: DT40 Tdp1-/- hTDP1 cells, no CPT, ATP luminescence, 48 h; activity change, negative = growth inhibition: at 46.2 µM (top of the series) unless noted
Procedure, shortened: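 Readout: luminescence from CellTiter-Glo after 30 min in the dark at RT. Cells: DT40 Tdp1-/- with stable hTDP1, 400/well. Exposure: compounds alone, ≥48 hr, 37 °C.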
In the case of `Cc1cc(Nc2cccc(C(F)(F)F)c2)ncn1`, the Potency is reported as inconclusive [inhibitor, single point]. With `CN(c1ccccc1)S(=O)(=O)c1cc(C(=O)N2CCN(c3ncccn3)CC2)ccc1Cl` the Potency was inconclusive [inhibitor, partial curve, poor fit]. With `CCCCn1nc(C(=O)Nc2ccc3c(c2)OCCO3)c2ccccc2c1=O` the Potency was inconclusive [inhibitor, single point]. With `Cc1ccc(NC(=O)N2CCCC(c3nc(-c4ccc(F)cc4)no3)C2)cc1` (centres undefined) the Potency was inconclusive [inhibitor, single point]. For `O=C(N/N=C/c1cccc(F)c1)c1ccc(Cl)cc1`, the Potency was “inactive”. For `O=C(CSc1nnc(N2CCCC2)n1-c1cccc(Cl)c1)N1CCN(c2ccccn2)CC1`, the Potency was active: 20.6 µM. With `NCCNC(=O)c1c(NC(=O)c2ccccc2)sc2c1CCCC2` the Potency was inconclusive [inhibitor, single point]. For `Cc1cccc(-c2nc(CS(=O)CC(=O)N3CC(C)CC(C)C3)c(C)o2)c1` (centres undefined), the Potency was “inactive”. For `CCOC(=O)c1cc(C#N)c(N2CCN(C(=O)c3ccccc3)CC2)nc1C(F)(F)F`, the Potency was inconclusive [inhibitor, single point]. In the case of `CC(C)(C)OC(=O)N1C(=O)[C@](OC(=O)c2ccccc2)(c2ccccc2)c2cccc(F)c21`, the Potency is reported as inconclusive [inhibitor, partial curve]. With `O=C(Nc1ccc(OC(F)F)cc1)c1nc(SCc2ccccc2F)ncc1Cl` the Potency was active: 12.6 µM. In the case of `Cc1ccc(NS(=O)(=O)c2ccc3c4c(cccc24)C(=O)N3)c(C)c1`, the Potency is reported as inconclusive [inhibitor, single point]. With `CNS(=O)(=O)c1cn(CC(=O)N2CCN(c3ccc(OC)cc3)CC2)cc1S(=O)(=O)NC` the Potency was inconclusive [inhibitor, single point]. In the case of `O=C(NCCCN1CCN(Cc2ccccc2)CC1)C1CCN(S(=O)(=O)N2CCC3(CC2)OCCO3)CC1`, the Potency is reported as “inactive”. With `CCN1CCCC1CN(Cc1cc2cc(C)ccc2[nH]c1=O)C(=O)Nc1ccccc1OC` (centres undefined) the Potency was active: 20.6 µM. With `O=C(O)C1C2CCC1C(O)C2` (centres undefined) the Potency was “inactive”. With `O=C(COc1ccccc1)N(Cc1cccnc1)c1nc2ccc(Cl)cc2s1` the Potency was “inactive”. For `COc1ccccc1NC(=O)COc1ccc(Br)cc1CO`, the Potency was inconclusive [inhibitor, single point]. For `CCCCc1oc2ccccc2c1C(=O)c1cc(I)c(N(CC)CCOCC)c(I)c1`, the Potency was active: 4.47 µM. For `Cc1cccc(OCc2nc3ccccc3n2C)c1`, the Potency was inconclusive [inhibitor, single point]. For `COc1ccc(S(=O)(=O)NC(N)=NCCc2ccccc2OC)cc1`, the Potency was inconclusive [inhibitor, single point]. In the case of `CCNC(=S)Nc1cccc(NC(=O)c2ccccc2O)c1`, the Potency is reported as inconclusive [inhibitor, single point]. For `CC(C)NC(=O)c1ccc(Cn2c(=O)c3cccn3c3cccnc32)cc1`, the Potency was inconclusive [inhibitor, single point]. In the case of `CCC(=O)c1ccc(OCC(=O)OCC(=O)c2c(N)n(C)c(=O)n(C)c2=O)cc1`, the Potency is reported as “inactive”. For `COc1ccccc1C1CCN(Cc2cccc([N+](=O)[O-])c2)CC1`, the Potency was inconclusive [inhibitor, partial curve]. With `O=C(O)CCC(=O)Nc1ccc(Cc2ccc(NC(=O)CCC(=O)O)c(O)c2)cc1O` the Potency was “inactive”. In the case of `CC(=O)Oc1ccc(N(C(C)=O)S(=O)(=O)c2cc([N+](=O)[O-])ccc2C)cc1`, the activity change, negative = growth inhibition is reported as inconclusive: -37.1% [inhibitor]. In the case of `COc1cc2c(C#Cc3cccnc3)c(-c3ccsc3)oc(=O)c2cc1OC`, the Potency is reported as inconclusive [inhibitor, partial curve]. For `Cc1ccc(N=Nc2c(N)nn3c(C)cc(C)nc23)cc1`, the Potency was active: 23.1 µM. For `CCOC(=O)c1c(NC(=O)C(C)Sc2cn(CCNC(=O)c3ccc(OC)c(OC)c3)c3ccccc23)sc2c1CCC2` (centres undefined), the Potency was inconclusive [inhibitor, full curve]. With `COC(=O)c1ccc2c(=O)[nH]c(CSc3nc(C)cs3)nc2c1` the Potency was inconclusive [inhibitor, single point]. For `COc1cc(C#Cc2c(-c3cncn3C)n(C)c3ccc(-c4cc(OC)c(OC)c(OC)c4)cc23)cc(OC)c1`, the Potency was active: 16.4 µM. With `CCc1ccc(NC(=O)[C@H](Cc2ccccc2)NC(=O)C2CCN(C(=O)[C@@H](N)CC(C)C)CC2)cc1` the Potency was inconclusive [inhibitor, single point]. In the case of `Cc1ccc(S(=O)(=O)N2[C@@H](c3ccc(C(C)(C)C)cc3)C(C(=O)O)=CC[C@H]2c2ccc3c(c2)OCO3)cc1`, the Potency is reported as inconclusive [inhibitor, single point]. In the case of `CC(C)C(=O)Nc1ccc(NC(=O)c2cc3ccccc3o2)cc1`, the Potency is reported as inconclusive [inhibitor, partial curve, poor fit]. In the case of `S=C(Nc1ccc(N2CCOCC2)cc1)Nc1ccc2nc(-c3ccco3)c(-c3ccco3)nc2c1`, the Potency is reported as inconclusive [inhibitor, single point]. With `O=C(NCCC1=CCCCC1)c1ccc2c(c1)N(Cc1ccc(F)cc1)C(=O)c1ccccc1S2(=O)=O` the Potency was active: 7.31 µM. With `COc1ccc(S(=O)(=O)N2CCN(CC(=O)Nc3sccc3C(N)=O)CC2)cc1OC` the Potency was active: 23.1 µM. With `N#CC(=Cc1ccncc1)c1ccccc1` the Potency was “inactive”. In the case of `Cc1ccc(OCC(=O)N(Cc2ccccc2)C(C)(C)C)c([N+](=O)[O-])n1`, the Potency is reported as inconclusive [inhibitor, single point]. With `Cc1c(NC(=O)c2cc(-c3cccc(Cl)c3)on2)c(=O)n(-c2ccccc2)n1C` the Potency was inconclusive [inhibitor, single point]. In the case of `NC(N)=Nc1nc2ccc([N+](=O)[O-])cc2[nH]1`, the Potency is reported as active: 29.1 µM. For `Cc1ccc(S(=O)(=O)NC(C)C(=O)NCc2ccc(Cl)cc2)cc1` (centres undefined), the Potency was inconclusive [inhibitor, single point]. With `CCn1c(=Nc2ccc(N3CCOCC3)cc2)ccc2ccccc21` the Potency was inconclusive [inhibitor, single point]. For `CC(=O)c1ccccc1OCCn1nc(C(=O)O)c2ccccc2c1=O`, the Potency was active: 16.4 µM. With `COc1ccc(-c2nnc(SC(C)C(=O)NCc3ccc4c(c3)OCO4)n2Cc2ccco2)cc1` (centres undefined) the Potency was active: 14.6 µM. For `O=C(NCc1ccccc1)N1CCC(CO)(CCc2ccccc2)CC1`, the Potency was inconclusive [inhibitor, full curve]. In the case of `S=c1nc(-c2ccccc2)[nH]c2ccc(Br)cc12`, the Potency is reported as inconclusive [inhibitor, partial curve]. For `O=[N+]([O-])c1ccc(/C=N/N2CCN(Cc3ccccc3)CC2)cc1`, the Potency was inconclusive [inhibitor, single point]. For `CC1CCCCN1N=Nc1nc2c([nH]1)c(=O)n(C)c(=O)n2C` (centres undefined), the Potency was inconclusive [inhibitor, single point]. For `COCCCNc1nc2c(-c3ccccc3)nnn2c2ccccc12`, the Potency was inconclusive [inhibitor, partial curve, poor fit]. For `CCCc1ccc(OCc2ccc(C(=O)NCc3cccnc3)o2)c(OC)c1`, the Potency was inconclusive [inhibitor, single point]. With `Cn1c(CCN2CCN(c3ccccn3)CC2)nc2cc(NC(=O)COc3ccc(Cl)cc3)ccc21` the Potency was active: 4.11 µM. For `CC(=O)NN1CCc2cc3ccc(C)cc3nc21`, the Potency was “inactive”. In the case of `CCOc1ccc(Br)cc1S(=O)(=O)Nc1ccc(Cl)c(S(=O)(=O)N(C)C)c1`, the Potency is reported as inconclusive [inhibitor, single point]. With `N/C(=N\OC(=O)c1cccc2ccccc12)c1ccccn1` the Potency was inconclusive [inhibitor, single point]. With `C=C(C)c1cccc(C(C)(C)NC(=O)Nc2ccc3[nH]c(=O)[nH]c3c2)c1` the Potency was “inactive”. In the case of `O=C(COc1ccc(-c2nnco2)cc1)NCc1ccccc1Cl`, the Potency is reported as inconclusive [inhibitor, single point]. With `CCOC(=O)c1c(C)oc2nc(C)nc(NCc3ccc(C)cc3)c12` the Potency was inconclusive [inhibitor, single point]. With `CCOC(=O)c1c(-c2ccc3ccccc3c2)csc1NC(=O)CCCC(=O)O` the Potency was inconclusive [inhibitor, partial curve, poor fit]. With `Cc1cccc(NC(=S)NC2CC3CCC(C2)N3Cc2ccco2)c1` (centres undefined) the Potency was “inactive”. For `COc1ccc(C2NC(c3ccc(OC)cc3)C(C)C(=O)C2C)cc1` (centres undefined), the Potency was inconclusive [inhibitor, single point]. For `COc1cccc(NC(=O)CN(C2=NC3CS(=O)(=O)CC3S2)c2cccc(C)c2)c1` (centres undefined), the Potency was inconclusive [inhibitor, single point]. For `O=C(Nc1nnc([C@H]2C[C@H](O)[C@@H](CO)O2)s1)NC(c1ccccc1)c1ccccc1`, the Potency was “inactive”. In the case of `Cc1cc(NC(=O)c2ccc3c(c2)C(=O)N(Cc2ccccc2)C3=O)no1`, the Potency is reported as inconclusive [inhibitor, single point]. With `O=C1OCCC1Sc1nc2ccccc2c(=O)n1-c1ccc(F)cc1` (centres undefined) the Potency was “inactive”. With `Cc1ccccc1C(=O)NCC(c1cccnc1)N1CCc2ccccc21` (centres undefined) the Potency was active: 18.4 µM. For `CN(Cc1ccc(-n2cccn2)cc1)Cc1nc(-c2cnccn2)no1`, the Potency was “inactive”. For `O=C(CSc1nc2sccc2c(=O)[nH]1)N1CCN(c2ccccc2)CC1`, the Potency was inconclusive [inhibitor, single point].
